# Measured values as given in paper PMC6212790.
# The other results are listed elsewhere or left out. At the low end of the ranking the order means little.
# Biological target: T1, GST-Rok (full length) (UniProt O34857)
# T1 sequence: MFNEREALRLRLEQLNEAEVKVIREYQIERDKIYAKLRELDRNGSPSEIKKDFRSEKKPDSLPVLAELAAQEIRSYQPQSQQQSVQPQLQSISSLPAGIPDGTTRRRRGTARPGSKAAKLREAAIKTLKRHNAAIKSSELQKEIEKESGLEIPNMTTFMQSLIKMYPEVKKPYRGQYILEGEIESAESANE
# Experiment: protein binding microarray;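 further: rank score from −0.5 (least bound) to 0.5 (best bound)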
# Conditions: Rok is a gene silencer of Bacillus subtilis; high values mean tight binding; most listed sequences are background and not binding sites; double strand, one strand shown
row,Sequence,binding signal [E-score]
1,TATTGGAA,0.0716
2,AAGAACCG,-0.133
3,GCTTTGAC,0.0394
4,AGGCTTTG,-0.21
5,CACCGAGA,-0.0238
6,GGCGTACA,-0.0118
7,CCCAAGCA,-0.265
8,AGAACCCA,0.00331
9,ACCGGCTG,-0.211
10,GCTCCGTA,-0.00531
11,TAACCAGA,-0.105
12,CTCCCGAC,-0.0195
13,CATGCTAG,0.192
14,ACCGTCGT,0.0566
15,CACAGCTA,0.135
16,ATTAGAGG,-0.215
17,AACCACCA,-0.169
18,ATCCTCTC,-0.226
19,GCCAATGA,-0.116
20,AACCATAT,0.192
21,ACACGGCT,-0.125
22,CTGCGACC,-0.12
23,CGCCGGTA,-0.147
24,AGGTCGTA,0.0742

row,Sequence,binding signal [E-score]
1,CCTGGGTC,-0.361
2,CAGGCATG,-0.176
3,AGTTTCGA,0.262
4,CCGTACTA,0.243
5,ATCATCCC,-0.203
6,CCAGATCA,-0.0971
7,AAAGAGGG,-0.308
8,CCGAAACC,0.00426
9,ATGACTTC,0.0698
10,ACTGTTCA,0.0465
11,ATGCGGTG,-0.0511
12,AAACTGAG,-0.11
13,ACCGCACA,-0.0784
14,CGAAACAA,0.09
15,AACGTGCG,-0.127
16,CATTAGAA,0.108
17,CGGTAACG,-0.0352
18,TGACGGAA,-0.0186
19,TAACCTTA,0.0661
20,GGGGGTTA,-0.341
21,ATCAGTTA,0.208
22,ACGATGCA,0.0564
23,AAGTATGA,0.211
24,CCCATGAC,-0.0591

row,Sequence,binding signal [E-score]
1,AGCGCTGA,-0.254
2,ATCGGGCA,-0.0463
3,GAATTCCC,-0.0489
4,GGTGGGTA,0.112
5,ACAATAAC,0.214
6,GGTGACAC,0.0136
7,AGACCTGC,-0.165
8,TCTCCTAA,-0.0327
9,GACCACAA,-0.0748
10,CTCATGGC,-0.151
11,AATCGGTC,-0.0689
12,AAGCATAC,0.08
13,ACCACCCA,-0.000827
14,ACGTAGAG,-0.0516
15,AGTAGTTC,0.413
16,ACTTGGCC,-0.163
17,GTTTAATA,0.24
18,AGCGTGGA,-0.00696
19,ACTCATGG,0.0938
20,ACGCGGGG,-0.207
21,CCTGATGC,-0.163
22,GCCCAAAA,-0.0303
23,AACAAGTG,0.133
24,AAAGTATC,0.193

row,Sequence,binding signal [E-score]
1,TCCGTGAA,-0.0712
2,CACAACGC,0.0738
3,CAGAGTCA,-0.0871
4,AGTGTGGG,-0.0592
5,AGGCCTTA,-0.0542
6,AGTCATAA,0.0334
7,GTAGCAAC,0.263
8,ATTCCGGA,0.092
9,CAGGCAAG,-0.283
10,CATAGGGC,-0.0263
11,ATATGGTA,0.318
12,CAAGCGAG,-0.275
13,TCACCACA,0.0771
14,CGACTTCC,0.0419
15,AGGATCAA,-0.132
16,AATAAACG,0.0748
17,AAGATCAG,0.176
18,CTGAGAAG,-0.14
19,CGCCGAGA,-0.216
20,ACAGGTAA,0.131
21,CAATAGCC,-0.0177
22,GGAATAGA,0.0819
